These results are taken from paper PMC7819943, “Rice protein-binding microarrays: a tool to detect cis-acting elements near promoter regions in rice”.

This is one part of the list.

The assay addresses T1, OsWOX13 (Oryza sativa, UniProt Q5QMM3 1-267).
T1 sequence: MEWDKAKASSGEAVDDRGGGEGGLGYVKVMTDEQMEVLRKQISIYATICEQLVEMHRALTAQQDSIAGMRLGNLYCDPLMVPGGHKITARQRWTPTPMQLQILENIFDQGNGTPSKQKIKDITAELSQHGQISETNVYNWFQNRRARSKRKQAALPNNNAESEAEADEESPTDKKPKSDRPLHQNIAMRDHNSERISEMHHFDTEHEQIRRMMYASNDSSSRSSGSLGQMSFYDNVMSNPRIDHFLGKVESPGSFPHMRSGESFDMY
Nature of the assay: protein-binding microarray (RPBM); PBS, 2% BSA, 51.3 ng/ul salmon testes DNA, 50 uM zinc acetate, 200 nM TF, 25 C, 1 h; high values mean tight binding. The settings on record: protein: recombinant; tags: N-terminal polyhistidine and DsRed monomer fusion (pET32a); label: CyDye5-dUTP incorporated in the synthesized complementary strand; 3' TTTTT single-stranded linker to array surface; dsDNA, one strand shown. Put shortly: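 Binding signal is defined as the fluorescence intensity of each feature in arbitrary units, read on an Axon 4000B scanner. Transcription factors with N-terminal polyhistidine and DsRed fusions came from E. coli BL21-CodonPlus and were purified on Ni–NTA. They were incubated at 200 nM for 1 h at 25 °C on a custom Agilent array that had been made double-stranded with Cy5-dUTP, with 50 µM zinc acetate present, and the array was washed.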
Regarding “GACGCCGTCAGCAATGATTGCCTTGCTAGCAGCTGCTTGACGGAGTCACCTAGTGCAG”, the binding signal is 4390 fluorescence intensity (a.u.).
Next, “TCCCAATTGACTAGAGGATGCTTCAGAGATGAAAACATGGCGGAGTCACCTAGTGCAG”: 9280 fluorescence intensity (a.u.).
Next, “AGTGTGTGATTGATAGTAGTATTAATTATTTTAAACTTAACGGAGTCACCTAGTGCAG”: 39700 fluorescence intensity (a.u.); “CATGCCTATCGTGATTAGTTAGCCCAGTCAGCTCGATCAGCGGAGTCACCTAGTGCAG”: 7680 fluorescence intensity (a.u.); “AAATCGGTAATTTTATAATGGCATGGATCTAATTAACCCTCGGAGTCACCTAGTGCAG”: 5860 fluorescence intensity (a.u.).
In the case of “GATATACTATTGATATAATTGATGGATTGACTGGTAAACCCGGAGTCACCTAGTGCAG”, the binding signal is 44000 fluorescence intensity (a.u.).
Then “ACAATATAATTACACTTCAATTCCATTATATTACATGCGACGGAGTCACCTAGTGCAG”, with 15900 fluorescence intensity (a.u.).
Next, “ATTATATCACTTATTAATTTTCAGGCTATGAAACAAGAGCCGGAGTCACCTAGTGCAG”: 4070 fluorescence intensity (a.u.).
Then “CTCATTTAATTGTGCTGTTTTCTTTCTCTTCAGTGAAATACGGAGTCACCTAGTGCAG”, with 9750 fluorescence intensity (a.u.); and “GTGGAGATGATGGGATTTGCTTTGAGATTTGTGATGGAACCGGAGTCACCTAGTGCAG”, with 4170 fluorescence intensity (a.u.).
Turning to “CAAGCCTTCACTGATTGCACTGTGGTAGTATGGACTTAAGCGGAGTCACCTAGTGCAG”, the binding signal was 4720 fluorescence intensity (a.u.).
Next, “GGAGGCGCATTGCCACCGATTGATTGAGCTCTCCTTCTCCCGGAGTCACCTAGTGCAG”: 6010 fluorescence intensity (a.u.); “ATGAAATTAACTAAAATAATAATAAAAGTAATCACCTCAGCGGAGTCACCTAGTGCAG”: 13500 fluorescence intensity (a.u.); “ATACACAGCTGTAATTTAAAACAATTTTAAATGAGCTAGTCGGAGTCACCTAGTGCAG”: 3370 fluorescence intensity (a.u.).
As to “AGAAAACAAACATATTATCAAATTATATTATATGTTAGTTCGGAGTCACCTAGTGCAG”, the binding signal is 3390 fluorescence intensity (a.u.).
Next, “TTTAACATTTCCCCTTATAATTTTACCAAATCACTATGTTCGGAGTCACCTAGTGCAG”: 4600 fluorescence intensity (a.u.).
With “ATCGTCCCTAAATTGGACAAAATTACACTGAACTACGCAGCGGAGTCACCTAGTGCAG”, the binding signal was 19900 fluorescence intensity (a.u.).
Next, “AATTTTGAATTTGATATAATTTATTTTATATCATTTGCTTCGGAGTCACCTAGTGCAG”: 10400 fluorescence intensity (a.u.).
Then “GTTAATTACCCCGGTGTCACTTTCAGTCACCATCACCACTCGGAGTCACCTAGTGCAG”, with 24600 fluorescence intensity (a.u.); and “ACAATTTGGTAATTGATAAGATGGAGAAGAAACTGATCTCCGGAGTCACCTAGTGCAG”, with 27400 fluorescence intensity (a.u.); and “GAATCCAATTAAGACCAGCATGATGGATTTTGGAAAAGATCGGAGTCACCTAGTGCAG”, with 13700 fluorescence intensity (a.u.).
Then “CGCGTAATGGATTTGGGAAATTGGGAACCCATTGCTGCTGCGGAGTCACCTAGTGCAG”, with 25800 fluorescence intensity (a.u.); and “TCCTCTGATTTTCCACCACAAGATCTCTAGTTTCTTTGATCGGAGTCACCTAGTGCAG”, with 5220 fluorescence intensity (a.u.); and “ACATATGTAATTACATATGTAATTTTAGGAACTTACAATGCGGAGTCACCTAGTGCAG”, with 24100 fluorescence intensity (a.u.).
Consider “GTCGCACTCACTCACTCGCATCCTCTCCTCTCAAATACTCCGGAGTCACCTAGTGCAG”, for which the binding signal is 3640 fluorescence intensity (a.u.).
Consider “TCAAATTCTAAATAGACAGATCCGGACTACCTGAATTAACCGGAGTCACCTAGTGCAG”, for which the binding signal is 21300 fluorescence intensity (a.u.).
Next, “CCTAATCGTTGATATTGGTGATAGAGACAAAGATTTCATGCGGAGTCACCTAGTGCAG”: 6170 fluorescence intensity (a.u.); “GAGATAAATTAGGAGAGTTTTCAACAGTGACAGCCCAGGCCGGAGTCACCTAGTGCAG”: 14200 fluorescence intensity (a.u.).
As to “CTGCTGATTGGCTTATCAACAATAGCCAATATTTAAATGTCGGAGTCACCTAGTGCAG”, the binding signal is 26800 fluorescence intensity (a.u.).
Next, “CCCATATTAAAATTTGCTAATCAAATTCTCGAACTTACGTCGGAGTCACCTAGTGCAG”: 6840 fluorescence intensity (a.u.); “AATCTATATTTAATATTTATAATTAGTGTCCAAACCTTGACGGAGTCACCTAGTGCAG”: 7140 fluorescence intensity (a.u.); “GTAATTGGTTTGGTCAACAGCACAGCTAGCTTCTCCGTACCGGAGTCACCTAGTGCAG”: 4990 fluorescence intensity (a.u.).
Then “TTGCCGTAAAATTGATTTTATATTCACGCTGTAGATACTGCGGAGTCACCTAGTGCAG”, with 9720 fluorescence intensity (a.u.).
Turning to “AGATAATTGTGAAATAATTATATTGCGATTTGATAAAGTACGGAGTCACCTAGTGCAG”, the binding signal is 14700 fluorescence intensity (a.u.).
Then “AAATTTTGATCAAATCTTCTTCTTAACGTTGTACACTTATCGGAGTCACCTAGTGCAG”, with 3980 fluorescence intensity (a.u.); and “ATTAAACGTAGATTAATAACAAAACAAATCACAGATTCCGCGGAGTCACCTAGTGCAG”, with 6620 fluorescence intensity (a.u.); and “ATCACCAATCTATCTATAAAACCAAGGTGGTCGTCGTCTCCGGAGTCACCTAGTGCAG”, with 5560 fluorescence intensity (a.u.).
Next, “AGGAAAATGTGGTGAGTAATTAGGTTATAATTTATTGAGTCGGAGTCACCTAGTGCAG”: 4100 fluorescence intensity (a.u.); “GGAAATTTTATAATTCGTAATCGTCACTTGTCCTTTAACCCGGAGTCACCTAGTGCAG”: 6030 fluorescence intensity (a.u.); “TGATTTCATGATTGATAGCTACATATCTTAGTTTCACACCCGGAGTCACCTAGTGCAG”: 40200 fluorescence intensity (a.u.).
Next, “GCCTCTAATGTCAATCAGTTTCGCTTTCCATCCTTCTCATCGGAGTCACCTAGTGCAG”: 28200 fluorescence intensity (a.u.).
For the sequence “TACGATTATACTATAATTATATCTGTCAAATATTTAGGAGCGGAGTCACCTAGTGCAG”, the binding signal was 25200 fluorescence intensity (a.u.).
Then “GGTTACATAAATAAACATGATTTGTCAGTAATTCTGTGCCCGGAGTCACCTAGTGCAG”, with 20900 fluorescence intensity (a.u.); and “CAGGACGTGCAATAATTATATACTTTCAGTCTTTCACCAGCGGAGTCACCTAGTGCAG”, with 3300 fluorescence intensity (a.u.).
Next, “TGATTAAATTGCTTTAACTTTTATTTAATTTGTAGAAAATCGGAGTCACCTAGTGCAG”: 22500 fluorescence intensity (a.u.); “GACACAAATTTAGCCGATCAGACCGTCCGCTCGCATAACTCGGAGTCACCTAGTGCAG”: 3300 fluorescence intensity (a.u.).
Then “GCTAATTATATCGACAAGTTAAAACGAATTGAAAGATTAACGGAGTCACCTAGTGCAG”, with 9920 fluorescence intensity (a.u.); and “GTAATGACTGATTAATGTAGGTGCTTGAAGAGCATGAGCTCGGAGTCACCTAGTGCAG”, with 22500 fluorescence intensity (a.u.).
As for “TAAATTGCTATTATGACTTAATTATATGATTTATGCCATCCGGAGTCACCTAGTGCAG”, the binding signal is 32300 fluorescence intensity (a.u.).
Then “CGCATGTTAACTTGGAATGATCGGACTCCTAACTGCAGTTCGGAGTCACCTAGTGCAG”, with 4220 fluorescence intensity (a.u.); and “AACAAATCAGCAATCAATCTCTGCAAGAATCCGGTACTCCCGGAGTCACCTAGTGCAG”, with 23200 fluorescence intensity (a.u.); and “CCTGATTAATTGGGTCGTCGTTCCATTCCCAGCCGATCGACGGAGTCACCTAGTGCAG”, with 65200 fluorescence intensity (a.u.).
For “ATTTGACGAGACAAATTAAATCCCACAGAGTCAGCAGAGCCGGAGTCACCTAGTGCAG”, the binding signal was 26700 fluorescence intensity (a.u.).
Then “CAGAAAGTAATTGGAAATACAAATCCATGGTCCCTAAATGCGGAGTCACCTAGTGCAG”, with 24800 fluorescence intensity (a.u.).
